# Laboratory results taken from the supplement of paper PMC8728848.
# Some of the results follow.
# B1: BTL (Bryothamnion triquetrum) (protein)
# chain: ADPICGSSGYSCTTPAILTPKSPGSFPSGYSKVIVTGVGGSYSVYIHRPDGFKVYKASEGGCASFGSYSGGGNSEVGKYGSGGTVVAVACK
# Experiments:
# Assay in all cases: glycan array binding signal (z-score within array); higher = stronger binding
# Settings in all cases: glycan notation: IUPAC condensed, linker removed
# Fuc(a1-2)Gal = biological target: Fuc(a1-2)Gal
# Method in brief: (§1)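 From the Consortium for Functional Glycomics database, 3228 arrays were curated, keeping only those whose protein sequence was available. Binding is given as a within-array Z-score averaged across arrays sharing a protein sequence and across linkers. Negative Z-scores can be read as non-binding.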
# Fuc(a1-2)Gal(b1-3)GalNAc = biological target: Fuc(a1-2)Gal(b1-3)GalNAc
# Method in brief: as §1
# [1] = biological target: Fuc(a1-2)Gal(b1-3)GalNAc(a1-3)[Fuc(a1-2)]Gal(b1-4)Glc
# Method in brief: as §1
# [2] = biological target: Fuc(a1-2)Gal(b1-3)GalNAc(a1-3)[Fuc(a1-2)]Gal(b1-4)GlcNAc
# Method in brief: as §1
# [3] = biological target: Fuc(a1-2)Gal(b1-3)GalNAc(b1-3)Gal
# Method in brief: as §1
# [4] = biological target: Fuc(a1-2)Gal(b1-3)GalNAc(b1-3)Gal(a1-4)Gal(b1-4)Glc
# Method in brief: as §1
# [5] = biological target: Fuc(a1-2)Gal(b1-3)GalNAc(b1-4)[Neu5Ac(a2-3)]Gal(b1-4)Glc
# Method in brief: as §1
# Fuc(a1-2)Gal(b1-3)GlcNAc = biological target: Fuc(a1-2)Gal(b1-3)GlcNAc
# Method in brief: as §1
# [6] = biological target: Fuc(a1-2)Gal(b1-3)GlcNAc(b1-2)Man(a1-3)[Fuc(a1-2)Gal(b1-3)GlcNAc(b1-2)Man(a1-6)]Man(b1-4)GlcNAc(b1-4)GlcNAc
# Method in brief: as §1
# [7] = biological target: Fuc(a1-2)Gal(b1-3)GlcNAc(b1-2)Man(a1-3)[Fuc(a1-2)Gal(b1-3)GlcNAc(b1-2)Man(a1-6)]Man(b1-4)GlcNAc(b1-4)[Fuc(a1-6)]GlcNAc
# Method in brief: as §1
# [8] = biological target: Fuc(a1-2)Gal(b1-3)GlcNAc(b1-3)Gal(b1-4)Glc
# Method in brief: as §1
# [9] = biological target: Fuc(a1-2)Gal(b1-3)GlcNAc(b1-3)GalNAc
# Method in brief: as §1
# [10] = biological target: Fuc(a1-2)Gal(b1-3)GlcNAc(b1-3)[Fuc(a1-2)Gal(b1-3)GlcNAc(b1-6)]GalNAc
# Method in brief: as §1
# [11] = biological target: Fuc(a1-2)Gal(b1-3)GlcNAc(b1-3)[Gal(b1-4)GlcNAc(b1-6)]Gal(b1-4)Glc
# Method in brief: as §1
# [12] = biological target: Fuc(a1-2)Gal(b1-3)GlcNAc(b1-3)[Neu5Ac(a2-6)Gal(b1-4)GlcNAc(b1-6)]Gal(b1-4)Glc
# Method in brief: as §1
# [13] = biological target: Fuc(a1-2)Gal(b1-3)GlcNAc6S
# Method in brief: as §1
# [14] = biological target: Fuc(a1-2)Gal(b1-3)[Fuc(a1-4)]GlcNAc
# Method in brief: as §1
# [15] = biological target: Fuc(a1-2)Gal(b1-3)[Fuc(a1-4)]GlcNAc(b1-2)Man(a1-3)[Fuc(a1-2)Gal(b1-3)[Fuc(a1-4)]GlcNAc(b1-2)Man(a1-3)]Man(b1-4)GlcNAc(b1-4)GlcNAc
# Method in brief: as §1
# [16] = biological target: Fuc(a1-2)Gal(b1-3)[Fuc(a1-4)]GlcNAc(b1-2)Man(a1-3)[Fuc(a1-2)Gal(b1-3)[Fuc(a1-4)]GlcNAc(b1-2)Man(a1-6)]Man(b1-4)GlcNAc(b1-4)[Fuc(a1-6)]GlcNAc(b1-4)[Fuc(a1-6)]GlcNAc
# Method in brief: as §1
# [17] = biological target: Fuc(a1-2)Gal(b1-3)[Fuc(a1-4)]GlcNAc(b1-3)[Fuc(a1-3)[Gal(b1-4)]GlcNAc(b1-6)]Gal(b1-4)Glc
# Method in brief: as §1
# [18] = biological target: Fuc(a1-2)Gal(b1-3)[Fuc(a1-4)]GlcNAc(b1-3)[Gal(b1-4)GlcNAc(b1-6)]Gal(b1-4)Glc
# Method in brief: as §1
# [19] = biological target: Fuc(a1-2)Gal(b1-4)Fuc(a1-3)]GlcNAc(b1-2)Man(a1-3)[Fuc(a1-2)Gal(b1-4)[Fuc(a1-3)]GlcNAc(b1-2)Man(a1-6)]Man(b1-4)GlcNAc(b1-4)GlcNAc
# Method in brief: as §1
# Fuc(a1-2)Gal(b1-4)Glc = biological target: Fuc(a1-2)Gal(b1-4)Glc
# Method in brief: as §1
# Fuc(a1-2)Gal(b1-4)Glc6S = biological target: Fuc(a1-2)Gal(b1-4)Glc6S
# Method in brief: as §1
# Fuc(a1-2)Gal(b1-4)GlcNAc = biological target: Fuc(a1-2)Gal(b1-4)GlcNAc
# Method in brief: as §1
# [20] = biological target: Fuc(a1-2)Gal(b1-4)GlcNAc(b1-2)Man
# Method in brief: as §1
# [21] = biological target: Fuc(a1-2)Gal(b1-4)GlcNAc(b1-2)Man(a1-3)[Fuc(a1-2)Gal(b1-4)GlcNAc(b1-2)Man(a1-6)]Man(b1-4)GlcNAc(b1-4)GlcNAc
# Method in brief: as §1
# [22] = biological target: Fuc(a1-2)Gal(b1-4)GlcNAc(b1-2)Man(a1-3)[Fuc(a1-2)Gal(b1-4)GlcNAc(b1-2)Man(a1-6)]Man(b1-4)GlcNAc(b1-4)[Fuc(a1-6)]GlcNAc
# Method in brief: as §1
# [23] = biological target: Fuc(a1-2)Gal(b1-4)GlcNAc(b1-2)[Fuc(a1-2)Gal(b1-4)GlcNAc(b1-4)]Man(a1-3)[Fuc(a1-2)Gal(b1-4)GlcNAc(b1-2)Man(a1-6)]Man(b1-4)GlcNAc(b1-4)GlcNAc
# Method in brief: as §1
# [24] = biological target: Fuc(a1-2)Gal(b1-4)GlcNAc(b1-3)Gal(b1-4)GlcNAc
# Method in brief: as §1
# [25] = biological target: Fuc(a1-2)Gal(b1-4)GlcNAc(b1-3)Gal(b1-4)GlcNAc(b1-2)Man(a1-3)[Fuc(a1-2)Gal(b1-4)GlcNAc(b1-3)Gal(b1-4)GlcNAc(b1-2)Man(a1-6)]Man(b1-4)GlcNAc(b1-4)GlcNAc
# Method in brief: as §1
# [26] = biological target: Fuc(a1-2)Gal(b1-4)GlcNAc(b1-3)Gal(b1-4)GlcNAc(b1-3)Gal(b1-4)GlcNAc
# Method in brief: as §1
# [27] = biological target: Fuc(a1-2)Gal(b1-4)GlcNAc(b1-3)GalNAc
# Method in brief: as §1
# [28] = biological target: Fuc(a1-2)Gal(b1-4)GlcNAc(b1-3)[Fuc(a1-2)Gal(b1-4)GlcNAc(b1-6)]GalNAc
# Method in brief: as §1
# [29] = biological target: Fuc(a1-2)Gal(b1-4)GlcNAc(b1-3)[Fuc(a1-3)[Gal(b1-4)]GlcNAc(b1-6)]Gal(b1-4)Glc
# Method in brief: as §1
# [30] = biological target: Fuc(a1-2)Gal(b1-4)GlcNAc(b1-6)GalNAc
# Method in brief: as §1
# [31] = biological target: Fuc(a1-2)Gal(b1-4)GlcNAc6S
# Method in brief: as §1
# [32] = biological target: Fuc(a1-2)Gal(b1-4)[Fuc(a1-3)]GlcNAc
# Method in brief: as §1
# [33] = biological target: Fuc(a1-2)Gal(b1-4)[Fuc(a1-3)]GlcNAc(b1-2)Man(a1-3)[Fuc(a1-2)Gal(b1-4)[Fuc(a1-3)]GlcNAc(b1-2)Man(a1-6)]Man(b1-4)GlcNAc(b1-4)[Fuc(a1-6)]GlcNAc
# Method in brief: as §1
# [34] = biological target: Fuc(a1-2)Gal(b1-4)[Fuc(a1-3)]GlcNAc(b1-2)[Fuc(a1-2)Gal(b1-4)[Fuc(a1-3)]GlcNAc(b1-4)]Man(a1-3)[Fuc(a1-2)Gal(b1-4)[Fuc(a1-3)]GlcNAc(b1-2)Man(a1-6)]Man(b1-4)GlcNAc(b1-4)GlcNAc
# Method in brief: as §1
# [35] = biological target: Fuc(a1-2)Gal(b1-4)[Fuc(a1-3)]GlcNAc(b1-3)Gal(b1-4)[Fuc(a1-3)]GlcNAc
# Method in brief: as §1
# [36] = biological target: Fuc(a1-2)Gal(b1-4)[Fuc(a1-3)]GlcNAc(b1-3)Gal(b1-4)[Fuc(a1-3)]GlcNAc(b1-3)Gal(b1-4)[Fuc(a1-3)]GlcNAc
# Method in brief: as §1
# [37] = biological target: Fuc(a1-2)Gal(b1-4)[Fuc(a1-3)]GlcNAc(b1-3)GalNAc
# Method in brief: as §1
# [38] = biological target: Fuc(a1-2)Gal(b1-4)[Fuc(a1-3)]GlcNAc(b1-3)[Neu5Ac(a2-6)Gal(b1-4)GlcNAc(b1-6)]Gal(b1-4)Glc
# Method in brief: as §1
# [39] = biological target: Fuc(a1-2)Gal3S(b1-4)GlcNAc
# Method in brief: as §1
binder,measurement,setting,value
B1,glycan array binding signal (z-score),Fuc(a1-2)Gal,-0.28
same,glycan array binding signal (z-score),Fuc(a1-2)Gal(b1-3)GalNAc,-0.254
same,glycan array binding signal (z-score),[1],-0.213
same,glycan array binding signal (z-score),[2],-0.275
same,glycan array binding signal (z-score),[3],-0.248
same,glycan array binding signal (z-score),[4],-0.262
same,glycan array binding signal (z-score),[5],-0.198
same,glycan array binding signal (z-score),Fuc(a1-2)Gal(b1-3)GlcNAc,-0.254
same,glycan array binding signal (z-score),[6],-0.058
same,glycan array binding signal (z-score),[7],2.75
same,glycan array binding signal (z-score),[8],-0.25
same,glycan array binding signal (z-score),[9],-0.189
same,glycan array binding signal (z-score),[10],-0.142
same,glycan array binding signal (z-score),[11],-0.245
same,glycan array binding signal (z-score),[12],-0.264
same,glycan array binding signal (z-score),[13],-0.245
same,glycan array binding signal (z-score),[14],-0.245
same,glycan array binding signal (z-score),[15],-0.149
same,glycan array binding signal (z-score),[16],1.51
same,glycan array binding signal (z-score),[17],-0.244
same,glycan array binding signal (z-score),[18],-0.232
same,glycan array binding signal (z-score),[19],-0.072
same,glycan array binding signal (z-score),Fuc(a1-2)Gal(b1-4)Glc,-0.245
same,glycan array binding signal (z-score),Fuc(a1-2)Gal(b1-4)Glc6S,-0.29
same,glycan array binding signal (z-score),Fuc(a1-2)Gal(b1-4)GlcNAc,-0.213
same,glycan array binding signal (z-score),[20],-0.236
same,glycan array binding signal (z-score),[21],-0.133
same,glycan array binding signal (z-score),[22],1.79
same,glycan array binding signal (z-score),[23],-0.263
same,glycan array binding signal (z-score),[24],-0.285
same,glycan array binding signal (z-score),[25],-0.109
same,glycan array binding signal (z-score),[26],-0.184
same,glycan array binding signal (z-score),[27],-0.164
same,glycan array binding signal (z-score),[28],-0.148
same,glycan array binding signal (z-score),[29],-0.269
same,glycan array binding signal (z-score),[30],-0.024
same,glycan array binding signal (z-score),[31],-0.258
same,glycan array binding signal (z-score),[32],-0.249
same,glycan array binding signal (z-score),[33],3.9
same,glycan array binding signal (z-score),[34],-0.055
same,glycan array binding signal (z-score),[35],-0.23
same,glycan array binding signal (z-score),[36],-0.264
same,glycan array binding signal (z-score),[37],-0.197
same,glycan array binding signal (z-score),[38],-0.219
same,glycan array binding signal (z-score),[39],-0.256
